# From PubChem BioAssay AID2147 (National Center for Advancing Translational Sciences (NCATS), 2009)
# About 3,600 (1.6%) of roughly 230,000 compounds were called active. The shares of active, inactive and inconclusive entries below differ from those in the screen. The call rests on the fitted dose curve; in most records, active means well fitted inhibition curve with a large enough effect (not every such curve was filed as active); inconclusive means small, poorly fitted or top-dose-only effect, or another doubt; inactive means no such curve, though single readings can be large or run the other way. Potencies beside an inconclusive call are fits to weak or partial responses and may not hold up.
# Molecular target: Lysine-specific demethylase 4E (Homo sapiens) (UniProt B2RXH2)
# Sequence of UniProt B2RXH2 (B2RXH2 whole entry, looked up, the tested form may be a part): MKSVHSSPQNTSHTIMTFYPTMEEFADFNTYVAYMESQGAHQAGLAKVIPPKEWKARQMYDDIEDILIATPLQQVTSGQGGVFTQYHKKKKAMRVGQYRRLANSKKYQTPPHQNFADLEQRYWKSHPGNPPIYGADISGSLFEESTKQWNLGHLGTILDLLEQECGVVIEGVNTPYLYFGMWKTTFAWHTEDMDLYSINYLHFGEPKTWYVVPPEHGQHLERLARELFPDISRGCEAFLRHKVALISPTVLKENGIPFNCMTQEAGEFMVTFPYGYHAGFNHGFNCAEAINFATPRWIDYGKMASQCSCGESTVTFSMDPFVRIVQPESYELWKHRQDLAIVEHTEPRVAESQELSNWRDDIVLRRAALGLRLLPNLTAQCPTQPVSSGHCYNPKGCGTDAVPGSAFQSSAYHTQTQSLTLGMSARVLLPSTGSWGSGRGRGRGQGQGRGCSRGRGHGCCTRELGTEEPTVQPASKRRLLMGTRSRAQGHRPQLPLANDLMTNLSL
# Experiment: qHTS Assay for Inhibitors of Human Jumonji Domain Containing 2E (JMJD2E)
# Conditions: JMJD2E catalytic domain, FDH-coupled NADH fluorescence (FDH is formaldehyde dehydrogenase); series mostly up to 57.1 µM
# Further: nearly all actives have a fitted effect of over 50% in size.
# Potency means the concentration at half of the fitted maximal effect; tags describe the fitted curve by direction and shape.
row,SMILES,Potency
1,O=C(O)CCc1ccc(-c2ccc(F)cc2)n1CC(=O)O,"inconclusive: 28.2 µM [inhibitor, single point]"
2,Cc1cc(C)c(C#N)c(SCC(=O)CC(=O)OC(C)C)n1,inactive
3,N#Cc1c(N)n(CCOC(=O)c2cccc([N+](=O)[O-])c2)c2nc3ccccc3nc12,"inconclusive: 28.2 µM [inhibitor, partial curve]"
4,Cc1ccccc1N1CC(=O)Nc2c(oc3nc(-c4ccccc4)cc(C)c23)C1=O,"inconclusive: 39.8 µM [inhibitor, single point]"
5,CCCCCSc1nnc(-c2ccccc2NC(C)=O)c(=O)[nH]1,inactive
6,Cc1nc2ccccn2c1C(=O)NC1CCCC1,"inconclusive: 22.4 µM [inhibitor, partial curve]"
7,CCC(=O)NCCc1cc2ccc(C)c(C)c2[nH]c1=O,"inconclusive: 25.1 µM [inhibitor, single point]"
8,C#CCCCCCCC#CCN(C)C,active: 15.8 µM
9,CCC(c1nnnn1Cc1ccc(OC)cc1)N1CCN(c2ccc(OC)cc2)CC1 (centres undefined),"inconclusive: 31.6 µM [inhibitor, single point]"
10,CC(C)C1N=C2c3ccccc3N=C(SCc3cc(=O)n4cc(Cl)ccc4n3)N2C1=O (centres undefined),"inconclusive: 35.5 µM [inhibitor, single point]"
11,COc1ccc(C2=NN(C(N)=S)C(c3ccco3)C2)cc1 (centres undefined),"inconclusive: 39.8 µM [inhibitor, single point]"
12,CCCCc1cc(=O)oc2c(CN3CCCC3)c(O)c(Cl)cc12,"inconclusive: 25.1 µM [inhibitor, partial curve]"
13,CCOc1ccccc1C(=O)N/N=C/c1c[nH]c2ccccc12,"inconclusive: 31.6 µM [inhibitor, single point]"
14,CC(C)CC(=O)Nc1nnc(-c2ccco2)s1,"inconclusive: 39.8 µM [inhibitor, single point]"
15,Cc1c(Cl)cnc(NC(=O)COC(=O)c2cccc(S(=O)(=O)N3CCc4ccccc4C3)c2)c1Cl,"inconclusive: 25.1 µM [inhibitor, single point]"
16,CCC(C(=O)O)n1nc(-c2ccccc2)c2cc(Cl)ccc21 (centres undefined),"inconclusive: 28.2 µM [inhibitor, partial curve]"
17,COc1ccc(S(=O)(=O)N2CCC(N3CCN(c4ccccc4OC)CC3)CC2)cc1,"inconclusive: 28.2 µM [inhibitor, single point]"
18,N#C/C(=C\c1c(N2CCCCCC2)nc2ccccn2c1=O)C(=O)NC1CCS(=O)(=O)C1 (centres undefined),"inconclusive: 2.24 µM [inhibitor, partial curve]"
19,CC(/C=N/n1c(-c2ccco2)n[nH]c1=S)=C\c1ccco1,"inconclusive: 31.6 µM [inhibitor, single point]"
20,O=C1NC(=O)c2cc(Nc3ccccc3)c(Nc3ccccc3)cc21,"inconclusive: 31.6 µM [inhibitor, single point]"
21,O=C(Nc1sc2c(c1C(=O)O)CCCC2)c1cccs1,inactive
22,CCOC(=O)c1sc(NC(=O)c2cc3n(n2)C(C(F)(F)F)CC(c2ccccc2)N3)c(C(=O)OCC)c1C (centres undefined),"inconclusive: 39.8 µM [inhibitor, single point]"
23,COC(=O)Cc1cccc2c(=O)c3ccccc3oc12,"inconclusive: 22.4 µM [inhibitor, partial curve]"

row,SMILES,Potency
1,COCCNC(=O)Nc1ccc2nc(-c3cccs3)c(-c3cccs3)nc2c1,"inconclusive: 31.6 µM [inhibitor, single point]"
2,O=C(Cn1c(/C=C/c2ccccc2)nc2ccccc21)Nc1ccc(F)cc1,"inconclusive: 28.2 µM [inhibitor, partial curve]"
3,Cc1ccc2c(c1)-c1ccccc1S(=O)(=O)N2,"inconclusive: 31.6 µM [inhibitor, partial curve]"
4,CCc1c(C(C)=O)oc2ccc3c(C)cc(=O)oc3c12,"inconclusive: 22.4 µM [inhibitor, partial curve]"
5,c1ccc(CN2CCN(c3nc(NCc4ccco4)c4ccccc4n3)CC2)cc1,"inconclusive: 35.5 µM [inhibitor, partial curve]"
6,Cc1nnc(SC(C)C#N)n1-c1ccccc1 (centres undefined),"inconclusive: 35.5 µM [inhibitor, single point]"
7,CC(=O)N(C(C)=O)n1c(C)nc2sc3c(c2c1=O)CCCC3,inactive
8,O=C(Nc1sc2c(c1C(=O)N1CCOCC1)CCCCC2)c1cccnc1,inactive
9,COc1ccccc1C(=O)Nc1cccc(N(C)S(C)(=O)=O)c1,"inconclusive: 35.5 µM [inhibitor, single point]"
10,O=C1CC(/C=C/c2ccc([N+](=O)[O-])cc2)=Nc2ccccc2N1,"inconclusive: 39.8 µM [inhibitor, single point]"
11,c1ccc2oc(-c3ccc4nc[nH]c4c3)nc2c1,"inconclusive: 31.6 µM [inhibitor, partial curve]"
12,O=S(=O)(c1ccc(Cl)cc1)c1ccccn1,"inconclusive: 35.5 µM [inhibitor, single point]"
13,CCc1ccccc1NC(=O)COc1ccc(C(=S)N2CCCC2)cc1,inactive
14,O=C(Cn1nnc(-c2cccs2)n1)N1CCOCC1,inactive
15,CCOc1ccc2nc(NC(=O)Cn3cnc4c3c(=O)n(C)c(=O)n4C)sc2c1,"inconclusive: 39.8 µM [inhibitor, single point]"
16,COC(=O)Cn1c(=NC(=O)C(C)(C)C)sc2c(C)cc(C)cc21,inactive
17,COC(=O)C1=CN(C)C=C(C(=O)OC)C1c1ccccc1Cl,"inconclusive: 28.2 µM [inhibitor, partial curve]"
18,Cn1ncc(Br)c1C(=O)N/N=C/c1ccc(OS(=O)(=O)c2ccccc2)cc1,inactive
19,S=c1[nH]nc(CNc2cccc(Cl)c2)o1,"inconclusive: 17.8 µM [inhibitor, partial curve]"
20,CC1CCC(C(C)(C)O)CC2=C1CCC2C (centres undefined),inactive
21,CCOC(=O)c1cc(C#N)c(Nc2ccc(C)cc2)nc1C(F)(F)F,"inconclusive: 35.5 µM [inhibitor, single point]"
22,CCOc1ccc(S(=O)(=O)Nc2ccccc2C(=O)Nc2ccccc2N2CCOCC2)cc1,"inconclusive: 35.5 µM [inhibitor, single point]"
23,CCc1cc2ccc(C)cc2nc1SCC(=O)Nc1c[nH]c(=O)[nH]c1=O,"inconclusive: 35.5 µM [inhibitor, single point]"

row,SMILES,Potency
1,Cc1ccccc1Nc1nc(NCc2ccco2)c2ccccc2n1,"inconclusive: 28.2 µM [inhibitor, partial curve]"
2,FC(F)(F)c1cc(-c2ccco2)nc(NCc2cccnc2)n1,"inconclusive: 25.1 µM [inhibitor, partial curve]"
3,COCc1cc(=O)[nH]c2c1c(-c1ccccc1)nn2C,"inconclusive: 25.1 µM [inhibitor, partial curve]"
4,Cc1ccc2nc3c(cc(C(=O)NCC4CCCO4)n3C)c(=O)n2c1 (centres undefined),"inconclusive: 3.55 µM [inhibitor, partial curve]"
5,O=C(CSc1ccc(Cl)cc1)NN=C1CCCCCC1,inactive
6,CN(C)CCOc1cc(Cl)cc(Cl)c1,inactive
7,CCC(C)(C)C1CCC(=NNC(=S)Nc2cccnc2)CC1 (centres undefined),inactive
8,C/C(=N\NC(=O)c1c(Cl)cnn1C)c1ccc(NC(=O)c2ccncc2)cc1,"inconclusive: 35.5 µM [inhibitor, single point]"
9,CCOC(=O)N1CCC(NC(=O)c2ccc(CS(=O)(=O)c3ccccc3C)o2)CC1,inactive
10,O=C1c2ccccc2N2C(=O)c3ccccc3C2N1Cc1ccco1 (centres undefined),inactive
11,CC1CCCC(C)N1C(=O)CSc1nnnn1Cc1ccccc1 (centres undefined),inactive
12,COCCNc1c(-c2ccc(O)cc2)nc2ccc(Cl)cn12,"inconclusive: 35.5 µM [inhibitor, single point]"
13,CCOc1ccc(NC(=O)Cc2c(O)c3ccccc3[nH]c2=O)cc1,"inconclusive: 28.2 µM [inhibitor, single point]"
14,CC(=O)c1nc2ccccc2n1CCc1ccccc1,"inconclusive: 31.6 µM [inhibitor, single point]"
15,CC(=O)c1ccc(NC(=O)CSc2nnc(-c3ccco3)c(-c3ccco3)n2)cc1,active: 15.8 µM
16,C/C=C\C[C@@H](C)[C@@H](O)[C@H]1C(=O)N[C@@H](CC)C(=O)N(C)CC(=O)N(C)[C@@H](CC(C)C)C(=O)N[C@@H](C(C)C)C(=O)N(C)[C@@H](CC(C)C)C(=O)N[C@@H](C)C(=O)N[C@H](C)C(=O)N(C)[C@@H](CC(C)C)C(=O)N(C)[C@@H](CC(C)C)C(=O)N(C)[C@@H](C(C)C)C(=O)N1C,inactive
17,COc1cc(O)oc1C=Nc1ccc(C(F)(F)F)cc1,"inconclusive: 39.8 µM [inhibitor, single point]"
18,COc1ccc(-c2c(C#N)c(N)n(N)c(=O)c2C#N)cc1Cl,"inconclusive: 35.5 µM [inhibitor, single point]"
19,O=C(Nc1nccs1)c1cc2c(s1)-c1ccccc1OC2,"inconclusive: 11.2 µM [inhibitor, partial curve]"
20,O=C(CN1C(=O)C2C3C=CC(C3)C2C1=O)NCCN1CCCc2ccccc21 (centres undefined),"inconclusive: 28.2 µM [inhibitor, single point]"
21,CN(C)c1ccc(C2C3CCCc4ccccc4C3=NN2C)cc1 (centres undefined),"inconclusive: 31.6 µM [inhibitor, partial curve]"
22,Cc1cc(N/N=C/c2ccccc2)nc(N2CCOCC2)n1,"inconclusive: 39.8 µM [inhibitor, single point]"
23,NC(=O)C1CCN(C(=O)c2cc3n(n2)C(C(F)(F)F)CC(c2ccco2)N3)CC1 (centres undefined),"inconclusive: 31.6 µM [inhibitor, partial curve]"
